Measured values reported in article PMC13450841 (PLOS Pathogens, 2026).

Tested on: P. aeruginosa PA103

In the case of [H]/N=C(\N/C(=N/[H])NCCCCCCNC(=N)NC(=N)Nc1ccc(Cl)cc1)Nc1ccc(Cl)cc1 [chlorhexidine], the “Bactericidal activity across a range of concentrations” value is reported as “dose-dependent bactericidal activity at higher concentrations”.
